About 120 (0.25%) of roughly 48,000 compounds were called active. About 4% were inconclusive and are not listed. Calls come from the whole dose curve; as a rule, active = well fitted activation curve with a large enough effect; inconclusive = small, poorly fitted or top-dose-only effect, or another doubt; inactive = no such curve, though single readings can be large or run the other way. The list shows a part of the results.
assay: Primary qHTS for Identification of Small Molecule Activators of Huntingtin-Antisense Promoter Activity; conditions: HEK293 HTT-AS promoter firefly luciferase reporter (activity 0% = vehicle and -100% = no light), 24 h; series mostly up to 57.5 µM; activity change, positive = activation: at the top concentration; note: nearly all actives have a fitted effect of over 55% in size
Method in brief: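 HEK293 cells carrying firefly luciferase reporters were seeded at 2,500 per well in Opti-MEM and cultured for 24 h. They were then treated with compounds at up to 57.5 uM final for 24 h at 37 degrees C before Dual-Glo luminescence readout.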

Activity change, positive = activation, inactive:
Cc1ccc(NC(=O)c2oc3ccc4c(c3c2C)C(=O)CC(C)(C)O4)c(C)c1 -28.7%, COc1ccc(CCNC(=O)c2cccc(Nc3nc4ccccc4nc3-n3nc(C)cc3C)c2)cc1OC 10.2%, O=C(CSc1n[nH]c(-c2ccc(F)cc2)n1)NCc1ccccc1Cl -26.1%, COc1ccc(C2C=C(c3ccc(Cl)cc3)Nc3nc(-c4ccc(Cl)cc4)nn32)cc1 (centres undefined) -92.5%, CC(=O)Nc1ccc2nc3c(=O)n(C)c(=O)n(C)c3nc2c1C -1.91%, CCOC(=O)Cn1c(=O)oc2cc(S(=O)(=O)N3CCN(c4cccc(C)c4)C(C)C3)ccc21 (centres undefined) -22.9%, COc1ccccc1CNC(=O)C(C)n1c(=O)cc(-c2ccccc2)c2c(C)nn(C)c21 (centres undefined) -29%, Cc1nc2cccnc2n1-c1cccc(C(=O)NCCN(C)C)c1 -1.32%, COc1ccc(-c2cc(C(F)F)nn2-c2ccc(S(N)(=O)=O)cc2)cc1F -15.6%, N#Cc1nc(-c2ccc(COc3ccccc3)o2)oc1N1CCN(c2ccccc2)CC1 -4.09%, CCc1ccc(CNC(=O)c2cnc3sc(N4CCOCC4)nn3c2=O)cc1 -4.9%, Cc1cccc(OC(=O)c2cc(-c3ccc(C)c(C)c3)on2)c1 1.84%, COc1ccc(Cl)cc1NC(=O)N1CCN(Cc2cc(=O)n3nc(-c4ccccc4)sc3n2)CC1 -0.307%, O=C1CCSC2(C(=O)N(Cc3ccc(F)cc3)c3ccccc32)N1c1ccc(Cl)cc1 (centres undefined) -31.6%, COc1ccc(OC)c(Nc2sc(C(=O)c3ccccc3)c(N)c2S(=O)(=O)c2ccccc2)c1 -20.3%, O=c1oc2ccccc2c(N2CCN(c3ccc(F)cc3)CC2)c1CN1CCCC1 -9.98%, Cc1cccc(N2CCN(S(=O)(=O)c3cc(C(=O)Nc4ccc(Oc5ccccc5)cc4)ccc3F)CC2)c1C -30.3%, O=C(Cn1ncc2c([nH]c3ccccc32)c1=O)NCCCN1CCN(c2ccccc2)CC1 -18.1%, Cc1ccccc1NC(=O)Cn1c(=O)n(CCc2ccccc2)c(=O)c2ccccc21 -18.5%, CCc1nn2c(=O)cc(COC(=O)c3ccccc3NC(=O)COc3ccc(C)c(C)c3)nc2s1 4.5%, COc1ccc(CNC(=O)C(C)n2nc(C)c3c(C)n(-c4ccccc4)nc3c2=O)c(OC)c1 (centres undefined) 0%, Cc1oc(-c2ccccc2F)nc1CN1CCC(C(=O)NCCc2ccccc2)CC1 -19.2%, CC(C(=O)Nc1ccc(OC(F)(F)F)cc1)N1Cc2ccccc2C1=O (centres undefined) -14.3%, CCCCn1cc(S(=O)(=O)c2cc(C)ccc2C)c(=O)c2cc(F)c(F)cc21 -1.69%, Cc1c(Cl)cccc1-n1ncc(C(=O)NC2CCCCC2)c1C1CCN(C(=O)OC(C)(C)C)CC1 -2.64%, CCOC(=O)c1cccc(NC(=O)c2oc3c(c2C)-c2nn(CC)cc2CC3)c1 5.8%, CCOc1ccc(CCNC(=O)CSc2nnnn2-c2ccccc2)cc1OCC -18.7%, COc1ccc(Br)cc1[C@@H]1Nc2ccc(C(=O)O)cc2[C@@H]2C=CC[C@@H]21 -13%, Cn1ncc2c(N3CCN(c4ccccc4F)CC3)ncnc21 -3.15%, CCOc1ccc(/C=C/c2nc(C#N)c(NC(C)c3ccccc3)o2)cc1 (centres undefined) -12.7%, COc1ccc(C)cc1NC(=O)Nc1cccc(OCc2cc(=O)n3ccc(C)cc3n2)c1 11.5%, Cc1ccccc1OCC(=O)NCC(c1ccc(Cl)cc1)N1CCCCC1 (centres undefined) -22.2%, CC(=O)N1CCc2cc(Br)cc(S(=O)(=O)N3CCC(C(=O)Nc4ccc(C(C)C)cc4)CC3)c21 -23.8%, COc1ccc(C(=O)CC2(O)C(=O)N(Cc3cccc(C(F)(F)F)c3)c3ccccc32)cc1 (centres undefined) -38.3%, CCOC(=O)c1ccc(-n2c(CCC(=O)O)ccc2-c2ccccc2)cc1 -9.66%, COc1ccc(N2CCN(S(=O)(=O)c3ccc(-c4ccno4)cc3OC)CC2)cc1 -13.5%, COc1cccc(C(=O)N2c3ncnn3C3(CCCCC3)[C@@H]3CCCC[C@@H]32)c1 -21.8%, CCCCc1ccc(NC(=O)c2ccc3c(c2)CCN3S(=O)(=O)CC)cc1 -46.9%, CN(Cc1ccccc1)S(=O)(=O)c1ccc(NC(=O)c2cc(=O)c3ccccc3o2)cc1 -34%, CCc1cccc(C)c1NC(=O)CN1C(=O)C2(SCC(=O)N2c2cccc(F)c2)c2ccccc21 (centres undefined) -17%, COc1cc(OC)c(NC2=C(c3ccc(C(F)(F)F)cc3)C(=O)c3ccccc32)cc1Cl -36.3%, O=C(Cn1c(=O)nc(-c2ccccc2)c2ccccc21)N1CCN(c2ccc(F)cc2)CC1 4.96%, COc1cc(NC(=O)C(Cc2ccccc2)NS(=O)(=O)c2cccs2)cc(OC)c1 (centres undefined) -31.2%, Cc1noc(/C=C/c2ccccc2F)c1S(=O)(=O)N1CCC(C(=O)NCC(C)c2ccccc2)CC1 (centres undefined) 14.8%, OCCCn1c(-c2ccc(F)cc2)csc1=Nc1ccc(F)cc1 -20.5%, CC(C)Oc1ccccc1NC(=O)CSc1nccn1C -6.86%, O=C(O)CSc1nc2ccc(NC(=O)COc3ccc(Cl)cc3)cc2s1 -14.2%, Cc1ccc(-n2c(=O)c3c(c4cc(C)ccc4n3C)n(CC(=O)c3ccc(Cl)cc3)c2=O)cc1 -11.5%, C#CCn1c(=O)n(-c2cccc(Cl)c2C)c(=O)c2c3c(sc21)CN(C(C)=O)CC3 -11.8%, CCOc1ccc(CNC(=O)Cn2nc(C)c3c(C)n(-c4ccc(C)cc4)nc3c2=O)cc1 -23.4%, CC(=O)c1ccc(-n2c(CCC(=O)O)ccc2-c2cccs2)cc1 -1.41%, O=C(CCS(=O)(=O)c1ccccc1)N(Cc1cccnc1)c1nc2ccc(F)cc2s1 -18.8%, COc1ccc(-c2cnc(C)o2)cc1S(=O)(=O)Nc1ccc(OC(F)(F)F)cc1 -21.9%, Cc1ccc(C)c(CSc2nnc(C)n3c2cc2sccc23)c1 -27.6%, COc1ccccc1CNC(=O)CSc1ccc(-c2sc(-c3ccccc3)nc2C)nn1 -7.84%, CCC(=O)N1CCc2cc(S(=O)(=O)NC(Cc3ccccc3)C(=O)Nc3ccccc3C)ccc21 (centres undefined) -4.25%, O=S(=O)(c1ccc(Cl)cc1)c1nc(-c2ccco2)oc1SCc1ccccc1F -16.1%, CC(=O)c1cccc(NS(=O)(=O)c2cc3c(cc2C)n(C)c(=O)c(=O)n3C)c1 -4.74%, Cc1cccc(NC(=O)C(=O)NCC(c2ccc3c(c2)OCO3)N2CCN(c3ccccc3)CC2)c1 (centres undefined) -11.2%, O=C(Nc1sc2c(c1C(=O)Nc1ccccc1)CCC2)c1ccc(Br)cc1 -17.3%, CCOCCCNC(=O)C(c1ccccc1)N1Cc2ccccc2C1=O (centres undefined) 7.64%, Cc1ccc(NC(=O)c2ccc(CN3CC(=O)N4CCCCC4C3=O)cc2)c(C)c1 (centres undefined) -4.6%, COC(=O)c1ccc(NC(=O)CSc2nnc3c4ccccc4n(C(C)C)c3n2)cc1 -0.427%, CCOc1cccc(C(=O)Nc2cc(C)c(O)c(-c3nc4ncccc4o3)c2)c1 -4.86%, Cc1ccc2c(=O)c(C(=O)c3ccc(F)cc3)cn(CC(=O)Nc3ccc4c(c3)OCCO4)c2n1 -28.7%, COc1cccc(Cc2nc3ccccc3nc2SCC(=O)N2CCCc3ccccc32)c1 -10.8%, COc1ccc(CNC(=O)CC(c2ccc(OC)cc2)N2Cc3ccccc3C2=O)cc1 (centres undefined) -13.2%, CCOC(=O)c1c(NC(=O)c2cc(=O)c3cc(C)cc(C)c3o2)sc(C)c1C -7.41%, O=C(CSc1nccn1C1CCCC1)Nc1cc(C(F)(F)F)ccc1Cl -6.48%, Cc1ccc(-c2nn(CC(=O)NCc3ccccc3)c3c2cnc2ccc(F)cc23)cc1C 19.6%, O=C(c1ccc2c(c1)N(Cc1ccccc1)C(=O)c1ccccc1S2(=O)=O)N1CCc2ccccc21 -18.6%, COc1ccc(OC)c(-n2c3c(cc(-c4nc(-c5ccc(Cl)cc5)cs4)c2=O)C(=O)CC(C)(C)C3)c1 -9.36%, CCCNC(=O)CN1C(=O)COc2ccc(S(=O)(=O)N3CCC(C)CC3)cc21 -14.5%, Cc1c(NC(=O)C(C)(C)Oc2ccc(Cl)cc2)cccc1-c1nc2ccccc2o1 -42.3%, O=C(c1cc(-c2ccc(F)cc2)on1)N1CCN(c2ccc(F)cc2)CC1 -13.1%, CCCCNS(=O)(=O)c1ccc2nc(-c3cccnc3)cc(C(=O)NC(C)C)c2c1 -22%, Cn1nc(C(=O)N2CCN(c3ccccc3F)CC2)c2c1-c1ccccc1S(=O)(=O)C2 18.9%, O=C(CN1C(=O)c2cccc3cccc1c23)Nc1ccccc1Br -7.71%, CCCC1N=C2c3ccccc3N=C(SCC(=O)NCCc3ccc(Cl)cc3)N2C1=O (centres undefined) 12.4%, CCOC(=O)c1ccccc1NC(=O)c1cc2ccc3cccnc3c2[nH]1 10.3%, CCCOC(=O)CSc1nnc(-c2ccccc2)o1 -16.4%, CCn1c(C(=O)Nc2ccc(C)cc2C)cc2sc(Cl)cc21 -27.1%, CCOC(=O)COc1ccc(C)cc1C(=O)c1ccn2nc(-c3ccc(Cl)cc3)cc2n1 -14.2%, CC(C)c1ccc(CNc2nc(-c3ccco3)nn2S(=O)(=O)c2ccc(F)cc2)cc1 6.29%, Cc1cccc(N2CCN(Cc3cc(=O)oc4cc(C)ccc34)CC2C)c1 (centres undefined) -4.8%, Cc1ccccc1N1CC(c2nnc(NC(=O)c3ccco3)s2)CC1=O (centres undefined) -9.34%, CCOc1ccc(OCC(=O)NCCS(=O)(=O)N2CCN(c3cccc(Cl)c3)CC2)cc1 -27.2%, Cc1cccc(NC(=O)N2CCC(N3CCN(Cc4ccccc4)C(=O)C3=O)CC2)c1C -1.1%, CCc1cc2c(cc3c(=O)n(CC(=O)N4CCN(c5cccc(C)c5C)CC4)nc(CC)n32)s1 -4.13%, CCc1ccccc1NC(=O)CCC(=O)N1CC(C)Oc2ccc(C)cc21 (centres undefined) -12.6%, COc1ccc(CCNCc2c(C(=O)O)c(C)n(Cc3cccc(Cl)c3)c2C)c(OC)c1OC -11.1%, O=C(Cn1cc(C(=O)c2ccccc2)c(=O)c2cc3c(cc21)OCCO3)Nc1ccc(F)c(F)c1 -36.4%, COc1ccc(CCNC(=O)c2cc3c(=O)n(C)c4ccccc4c3s2)cc1OC -13.9%, Cc1ccc(C)c(N2CCN(S(=O)(=O)c3ccc(C(=O)N(C)C)s3)CC2)c1 -26.2%

From PubChem BioAssay AID1508624 (National Center for Advancing Translational Sciences (NCATS), 2021)
